Data from the supplement of paper PMC10670038.
Several values for one entry are separate records, joined by “and”; a condition that tells them apart may be missing. Equal entries are not always repeated. Structures can show the parent of a compound that is named as a salt. ± gives the standard deviation of the averaged measurements. Whole data set: some 2,000 compounds, median “relative cell viability vs DMSO, compound alone” near 1.1, cut for the lowest 2% near 0.29. Some of the results follow.

Each compound was assayed on TE10 (assay: relative cell viability vs DMSO, compound alone (fraction); TE10 is an esophageal squamous carcinoma line; higher = less cytotoxic). Settings: 2 µM; 48 h.
Experimental: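 TE10 ESCC cells (1,000/well, 384-well plates) were treated with Selleck bioactive library compounds at 2 uM alone for 48 h. Viability was read by CellTiter-Glo and expressed relative to DMSO wells. Two technical replicates (A, B).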

SMILES	relative cell viability
Clc1ccc(CCC(Cn2ccnc2)Sc2c(Cl)cccc2Cl)cc1 (stereo not given) [Butoconazole nitrate]	0.8597 ± 0.0014
CN(C)C(=O)Nc1cccc(-c2ccc(N(C)C)cc2)c1 [Atglistatin]	0.871 ± 0.024
Cc1cc2c(cc1CC(=O)c1sccc1S(=O)(=O)Nc1onc(C)c1Cl)OCO2 [Sitaxentan sodium]	1.06 ± 0.022
O=C(NC[C@H]1CN(c2ccc(N3CCOCC3=O)cc2)C(=O)O1)c1ccc(Cl)s1 [Rivaroxaban]	1.04 ± 0.076
C[C@@H]1C[C@H]2[C@@H]3C[C@H](F)C4=CC(=O)C=C[C@]4(C)[C@@]3(F)[C@@H](O)C[C@]2(C)[C@@]1(O)C(=O)CO [Flumethasone]	0.96 ± 0.012
c1ccc(NCc2ccc(CNc3ccccn3)cc2)nc1	1.085 ± 0.0086
COC(=O)c1ccc2c(c1)nc(NC(=O)c1ccccc1)n2CCCc1ccccc1	0.777 ± 0.0059
Cc1nnc(C(=O)NC(C)(C)c2nc(C(=O)NCc3ccc(F)cc3)c(O)c(=O)n2C)o1 [Raltegravir (MK-0518)]	0.842 ± 0.12
CN1CCC(=C2c3ccccc3C=Cc3ccccc32)CC1 [Cyproheptadine HCl]	0.958 ± 0.17
N=C(N)NC(=N)NCCc1ccccc1 [Phenformin HCl]	0.9814 ± 0.0047
CO[C@H]1/C=C/O[C@@]2(C)Oc3c(C)c(O)c4c(O)c(c(/C=N/N5CCN(C6CCCC6)CC5)c(O)c4c3C2=O)NC(=O)/C(C)=C\C=C\[C@H](C)[C@H](O)[C@@H](C)[C@@H](O)[C@@H](C)[C@H](OC(C)=O)[C@@H]1C [Rifapentine]	1.08 ± 0.022
C[C@@H](Oc1ccc2[nH]nc(/C=C/c3cnn(CCO)c3)c2c1)c1c(Cl)cncc1Cl	0.712 ± 0.01
CNC1CCCN(c2c(F)cc3c(=O)c(C(=O)O)cn(C4CC4)c3c2OC)C1 (stereo not given) [Balofloxacin]	1.08 ± 0.015
CC[C@H]1[C@@H](O)[C@@H]2[C@H](CC[C@]3(C)[C@@H]([C@H](C)CCC(=O)O)CC[C@@H]23)[C@@]2(C)CC[C@@H](O)C[C@@H]12 [Obeticholic Acid]	1.022 ± 0.0042
CCCc1cc(C(N)=S)ccn1 [Protionamide]	1.11 ± 0.028
COc1cccc2c1c(O)c(C(=O)N(C)c1ccc(C(F)(F)F)cc1)c(=O)n2C [Tasquinimod]	1.036 ± 0.0025
CC(=O)S[C@@H]1CC2=CC(=O)CC[C@]2(C)[C@H]2CC[C@@]3(C)[C@@H](CC[C@@]34CCC(=O)O4)[C@H]12 [Spironolactone]	1.02 ± 0.13
C#Cc1cccc(Nc2ncnc3cc(OC)c(OCCCCCCC(=O)NO)cc23)c1	0.502 ± 0.023
O=C(O)[C@]1(Cc2cccc(Nc3nccs3)n2)CC[C@@H](Oc2cccc(Cl)c2F)CC1	0.99 ± 0.085
COc1cc2c(Nc3ccc(NC(=O)c4ccccc4)cc3)ncnc2cc1OCCCN1CCOCC1	0.973 ± 0.043
CC(=O)Nc1ccc(C(=O)Nc2ccccc2N)cc1 [CI994 (Tacedinaline)]	1 ± 0.017
CC(C)(C)c1cnc(CSc2cnc(NC(=O)C3CCNCC3)s2)o1	0.413 ± 0.028
CCN[C@H]1CN(CCCOC)S(=O)(=O)c2sc(S(N)(=O)=O)cc21 [Brinzolamide]	0.905 ± 0.073
CC(C)c1c(C(=O)Nc2ccccc2)c(-c2ccccc2)c(-c2ccc(F)cc2)n1CC[C@@H](O)C[C@@H](O)CC(=O)O [Atorvastatin Calcium]	1.119 ± 0.004
COC(=O)Nc1nc2cc(C(=O)c3cccs3)ccc2[nH]1 [Nocodazole]	0.8892 ± 0.0028

SMILES	relative cell viability
CC(=Cc1ccc(C(=O)O)cc1)c1ccc2c(c1)C(C)(C)CCC2(C)C [TTNPB (Arotinoid Acid)]	0.982 ± 0.074
COc1cc(Br)c(Nc2nc(-c3c(C)nc4ncccn34)cs2)c(Br)c1	0.723 and 0.735
O=C(NC[C@H](O)CN1CCc2ccccc2C1)c1cc(NC2COC2)ncn1	0.987 ± 0.067
COc1cc2ncnc(Sc3nnc(C)s3)c2cc1OC	1.11 ± 0.035
Cc1ccc(S(=O)(=O)c2ccc([N+](=O)[O-])o2)cc1	0.286 ± 0.0092
O=C1NC(=O)C(c2cnc3ccccn23)=C1c1cn2c3c(cc(F)cc13)CN(C(=O)N1CCCCC1)CC2	1.019 ± 0.0032
OC(Cn1cncn1)(Cn1cncn1)c1ccc(F)cc1F [Fluconazole]	1.19 ± 0.095
NCCc1c[nH]cn1 [Histamine 2HCl]	1.09 ± 0.029
C[C@@H](NCCCc1cccc(C(F)(F)F)c1)c1cccc2ccccc12 [Cinacalcet HCl]	0.874 ± 0.014
CC(=O)Nc1cccc(-n2c(=O)n(C3CC3)c(=O)c3c(Nc4ccc(I)cc4F)n(C)c(=O)c(C)c32)c1	0.577 ± 0.022
Nc1[nH]cnc2ncnc1-2 [Adenine HCl]	1.15 ± 0.017
CC(C(=O)O)c1cccc(Oc2ccccc2)c1 (stereo not given) [Fenoprofen calcium hydrate]	1.07 ± 0.065
CC(C(=O)O)c1cccc(Oc2ccccc2)c1 (stereo not given) [Fenoprofen Calcium]	0.983 ± 0.026
COCCOc1nc(-c2ccc(Cl)c(Cl)c2)n(-c2ccc(NC(=O)CCl)cc2)n1 [MI-2 (MALT1 inhibitor)]	0.808 ± 0.069
CCCc1ncc(C[n+]2ccccc2C)c(N)n1 [Amprolium HCl]	1.107 ± 0.0088
O=C1NC(=O)C(c2ccccc2[N+](=O)[O-])=C1Nc1ccc(O)c(Cl)c1	1.11 ± 0.11
O=C(O)C(Cc1ccccc1[N+](=O)[O-])=NNc1nc(-c2ccc(Cl)c(Cl)c2)cs1	1.21 ± 0.024
OC[C@@H](O)[C@@H](O)[C@H](O)[C@H](O)CO [D-Mannitol]	1.11 ± 0.013
C[C@H](NCc1ccc(OCc2cccc(F)c2)cc1)C(N)=O [Safinamide Mesylate]	1.22 ± 0.038
CC(=O)OCC(=O)NCCCOc1cccc(CN2CCCCC2)c1 [Roxatidine Acetate HCl]	1.1 ± 0.052
CCn1cc(C(=O)O)c(=O)c2cc(F)c(N3CCNCC3)nc21 [Enoxacin]	0.925 ± 0.026
CNc1ncnc2c1ncn2[C@@H]1O[C@H](CO)[C@@H](O)[C@H]1O [N6-methyladenosine (m6A)]	0.9679 ± 0.0062
CC(C)OC(=O)C(C(=O)OC(C)C)=C1SC=CS1 [Malotilate]	1.077 ± 0.009
c1ccc2c(c1)CCCC2C1=NCCN1 (stereo not given) [Tetrahydrozoline HCl]	1.1 ± 0.066
C=C(C)[C@@H]1CC[C@]2(C(=O)O)CC[C@]3(C)[C@H](CC[C@@H]4[C@@]5(C)CC[C@H](O)C(C)(C)[C@@H]5CC[C@]43C)[C@@H]12 [Betulinic acid]	0.993 ± 0.17
